Assay results from the RNAGym collection of RNA variant scans (doi:10.7554/elife.90254).
The source gives no read counts; variants with many changes may rest on few reads.

B1: LINE1-full (parent)
chain: UACGUAGGUGGUUUUCCCCUGAUAGUGCUAAGGGGGCCUGGAAGUUUGGACUGGGCAGAGCUCAACACAGCGUGGCAAAGUGGCUGUGGCUAGACUGCCUCUCUGGAUUCCUCGUCACUCAGCAGGGCAUCUCUGAGAGAAAUGCC

Variants of: B1
Assay: self-cleavage, relative activity (ratio to wild type); higher = more cleavage; in vitro, sequencing; the parent is a self-cleaving ribozyme

Variant | self-cleavage
UACGUAGGUGGCUUUCCCCUGAUAGUGCCAAGGGGGCCUGGAAGUUCGGACUGGGCAGAGCUCAACACAGCGUGGCAAAGUGGCUGUGGCUAGACUGCCUCUCUGGAUUCCCCGUCACUCAGCAGGGCAUCUCUGAGAGAAAUGCC | 0
UACGUAGGGGGUUUUCCCCUGAUAGUGCUAAGGGGGCCUGGGAGUUUGGACUGGGCAGAGCUCAACACAGCGUGGCAAAGUGGCUGUGGCUAGACUGCCUCUCUGGAUUCCUCGUCUCUCAGCAGGGCAUCUCUGAGAGAAAUGCC | 1.05
UACGUAGGUGGUUUUCCCCUGAUAGUGCUAAGGGGGCCUGGAAGUUUGGACUGGGCGGAGCUCAACACAGCGUGGCUAAGUGGCUGUGGCUAGACUGCCUCUCUGGAUUCCUCGUCACUCAGCAGGGCAUCUCUGAGGGAAAUGCC | 0.49
UACGUAGGUGGCUUCCCCCUGAUAGUGCUAAGGGGGCCUGGAAGUUCGGACUGGGCAGAGCUCAACACAGCGUGGCAAAGUGGCUGUGGCUAGAUUGCCUCUCUGGAUUCCUCGUCACUCGGCAGGGCAUCUCUGAGAGAAAUGCC | 1.08
UACGUAGGUGGUUUUCCCCUGAUAAUGCUGAGGGGGCCUGGAAGUUUGGACUGGGCAGAGCUCAACACAGCGUGGCAAAGUGGCUGUGGCCAGACUGCCUCUCUGGAUUCCUCGUCACUCAGCAGGGCAUCUCUGAGAGAAAUGCC | 0.35
UACGUAGGUGGUUUUCCCCUGAUAGUGCUAAGGGGGCCUGGGAGUUUGGACUGGGCAGAGCUCAACACAGCGUGGCUAAGUGGCUGUGGCUAGACUGCCUCUCUGGAUUCCUCGUCACUCAGCAGGGCAUUUCUGAGAGAAAUGCC | 1.37
UACGUAGGUGGUUUUCCCCUGAUAGUGCUAAGGGGGCCUGGAAGUUUGUACUGGGCAGAGCUCUACACAGCGUGGCAAAGUGGCUGUGGCUAGACUGCCUCUCUGGAUUCCUCGUCACUCAGCAGGGCAUCUCAGAGAGAAAUGCC | 0.17
UACGUAGGUGGUUUUCCCCUGAUAGUGCUAAGGGGGCCUGGAAGUAUGGACUGGGCAGAGCUCAACACAGCGUGGCAAAGUGGCUGUGGCAAGACAGCCUCUCUGGAUUCCUCGUCACUCAGCAGGGCAUCUCUGAGAGAAGUGCC | 0.07
UACGUAGGUGGUUUUCCCCUGAUAGUGCUAAGGGGGCCUGGAAGUUUGGACUGGGCAGAGCUCAACACAGCGUGGCAAAGUGGCCGUGGCUAGACUGCCUCUCUGGAUUCCUCGUCACUCAGCAGGGCCUCUCUGAGAGAAAAGCC | 0.34
UACGUAGGUGGUUUACCCCUGAUAGUGCUAAGGGGGCCUGGAAGUUUGGACUGGGCAGAGCACAACACAGCGUGGCAACGUGGCUGUGGCUAGACUGCCUCUCUGGAUUCCUCGUCACUCAGCAGGGCAUCCCUGAGAGAAAUGCC | 0.19
UACGUAGGUGGUUUUCCCCUGAUAGUGCUAAGGGGGCCUGGAAGUUUGGACUGGGUAGAGCUCAACACAGCGUGGCGAAGUGGCUGUGGCUAGACUGCCUCUCUGGAUUCCUCGUCACUCAGCAGAGCAUCUCUGAGAGAAAUGCC | 0.25
UACGUAGGUGGUUUUCCCCUGAUAGUGCUAAGGGGGCCUGGAGGUUUGGACUGGGCAGAGCUCAACACAGCGUGGCAAAGUGGCUGAAGCUAGACUGCCUCUCUGGAUUCCUCGUCACUCAGCAGGGCAUCGCAGAGAGAAAUGCC | 0
UACGUAGGUGGUUUUCCCCCGAUAGUGCUAAGGGGGCCUGGAAGUUUGGACUGGGCUGAGCUCAACACAGCGUGGCAAAGUGGCUGUGGCUAGACUGCCUCUCUGGGUUCCUCGUCACUCAGCAGGGCAUCUCUGAGAGAAAUGCC | 0.24
UACGUAGGUGGUUUUCCCCUGGUAGUGCUAAGGGGGCCUGGAAGUUUGGACUGGGCAGAGCUCAACACAGCGUGGCAAAGUGGCUGCGGCUAGACCGCCUCUCUGGAUUCCUCGUCACUCAGCAGGGCAUCUCUGAGAGAGAUGUC | 2.63
UACGUAGGUGGUUUUCCCCUGAUAGUGCUAAGGGGGCCUGGAAGUUUGGACUGGGCAGAGCUCAACACAGCGUGGCAAAGUGGCUGUGGCUGGACUGCCCCUCUGGAUUCCUCGUCACUCAGCUGGGCAUCUCUGAGAGAAAUGCC | 0
UACGUAGGUGGUUUUCCCCUGAUAGUGCUAAGGGGGCCUGGAAGUUUGGGCUGGGCAGAGCUCAACACAGCGUGGCAAAGUGGCUGUGGCUAGACUGCCUCUCUGGAUUCCUUGUCACUCAGCAGGGCAUCUCUGAGGGAAAUGCC | 1.06
UACGUAGGUGGUUUUCCCCUGAUAGUGCUAAGGGGGCCUGGAAGUUUGGACUGGGCAGAGCUCAACACAGCGUGGCAAAGUGGCUGUGGCUAGACUGCUUCUCUGGAUUCCUCGUCAUUCAGCAGGGCAUCUCCGAGAGAAAUGCC | 0.38
UACGUAGGUGGUUUUCCCCUGAUAGUGCUAAGGGGGCCUGGGAGUUUGGACUGGGCAGAGCUCAACACAGCGUGGCAAAGUGGCUGUGGCUAGACUGCCUCUCUGGAUUCCUCGUCACCCAGUAGGGCAUCUCUGAGAGAAAUGCC | 1.23
UACGUAGGUGGUUUUCCCCUGAUAGUGCUAAGGGGGCCUGGAAGUUUGGACUGGGCAGGGCUCAACACAGCGCGGCAAAGUGGCUGUGGCUAGACUGCCUCUCUGGAUUCCUCGUCACUCAGCAGGGCAUCUCUGAGAGAGAUGCC | 0
UACGUAGGUGGUUUUCCCCUGAUAGCGCUAAGGGGGCCUGGAAGUUUGGACUGGGCAGAGCUCAACUCAGCGUGGCAAAGUGGCUGUGGCUAGACUGCCUCUCCGGAUUCCUCGUCACUCAGCAGGGCGUCUCUGAGAGAAACGCC | 0
